Data reported in the supplement of paper PMC8728848.
This is one part of the list.

Experiments:
Experiment in all cases: glycan array binding signal (z-score within array); higher = stronger binding
Conditions in all cases: glycan notation: IUPAC condensed, linker removed
[1] = target: Fuc(a1-2)Gal
How it was run: (§1)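 Glycan array data came from 3228 arrays in the Consortium for Functional Glycomics database, and only arrays with an available protein sequence were kept. Glycan names were put into IUPAC-condensed notation, and columns mapping to the same glycan were averaged. The binding signal is a within-array Z-score, averaged across arrays of one protein sequence run at different concentrations or buffers and across linkers. A negative Z-score can be read as non-binding.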

[2] = target: Fuc(a1-2)Gal(b1-3)GalNAc
How it was run: as §1

[3] = target: Fuc(a1-2)Gal(b1-3)GalNAc(b1-3)Gal
How it was run: as §1

[4] = target: Fuc(a1-2)Gal(b1-3)GalNAc(b1-3)Gal(a1-4)Gal(b1-4)Glc
How it was run: as §1

[5] = target: Fuc(a1-2)Gal(b1-3)GalNAc(b1-4)[Neu5Ac(a2-3)]Gal(b1-4)Glc
How it was run: as §1

[6] = target: Fuc(a1-2)Gal(b1-3)GlcNAc
How it was run: as §1

[7] = target: Fuc(a1-2)Gal(b1-3)GlcNAc(b1-3)Gal(b1-4)Glc
How it was run: as §1

[8] = target: Fuc(a1-2)Gal(b1-3)[Fuc(a1-4)]GlcNAc
How it was run: as §1

[9] = target: Fuc(a1-2)Gal(b1-4)Glc
How it was run: as §1

[10] = target: Fuc(a1-2)Gal(b1-4)GlcNAc
How it was run: as §1

[11] = target: Fuc(a1-2)Gal(b1-4)GlcNAc(b1-3)Gal(b1-4)GlcNAc
How it was run: as §1

[12] = target: Fuc(a1-2)Gal(b1-4)GlcNAc(b1-3)Gal(b1-4)GlcNAc(b1-3)Gal(b1-4)GlcNAc
How it was run: as §1

[13] = target: Fuc(a1-2)Gal(b1-4)[Fuc(a1-3)]GlcNAc
How it was run: as §1

[14] = target: Fuc(a1-2)Gal(b1-4)[Fuc(a1-3)]GlcNAc(b1-3)Gal(b1-4)[Fuc(a1-3)]GlcNAc
How it was run: as §1

[15] = target: Fuc(a1-2)Gal(b1-4)[Fuc(a1-3)]GlcNAc(b1-3)Gal(b1-4)[Fuc(a1-3)]GlcNAc(b1-3)Gal(b1-4)[Fuc(a1-3)]GlcNAc
How it was run: as §1

[16] = target: Fuc(a1-2)GlcNAc
How it was run: as §1

[17] = target: Fuc(a1-2)[Gal(a1-3)]Gal
How it was run: as §1

[18] = target: Fuc(a1-2)[Gal(a1-3)]Gal(b1-3)GlcNAc
How it was run: as §1

[19] = target: Fuc(a1-2)[Gal(a1-3)]Gal(b1-4)Glc
How it was run: as §1

[20] = target: Fuc(a1-2)[Gal(a1-3)]Gal(b1-4)GlcNAc
How it was run: as §1

[21] = target: Fuc(a1-2)[Gal(a1-3)]Gal(b1-4)[Fuc(a1-3)]GlcNAc
How it was run: as §1

[22] = target: Fuc(a1-2)[Gal(a1-4)]Gal(b1-4)GlcNAc
How it was run: as §1

[23] = target: Fuc(a1-2)[GalNAc(a1-3)]Gal
How it was run: as §1

[24] = target: Fuc(a1-2)[GalNAc(a1-3)]Gal(b1-3)GlcNAc
How it was run: as §1

[25] = target: Fuc(a1-2)[GalNAc(a1-3)]Gal(b1-4)Glc
How it was run: as §1

[26] = target: Fuc(a1-2)[GalNAc(a1-3)]Gal(b1-4)GlcNAc
How it was run: as §1

[27] = target: Fuc(a1-2)[GalNAc(a1-3)]Gal(b1-4)[Fuc(a1-3)]GlcNAc
How it was run: as §1

[28] = target: Fuc(a1-2)[GalNAc(a1-4)]Gal(b1-4)GlcNAc
How it was run: as §1

[29] = target: Fuc(a1-2)[GalNAc(b1-3)]Gal
How it was run: as §1

[30] = target: Fuc(a1-3)GlcNAc
How it was run: as §1

B1: CLEC7A (Homo sapiens), Q9BXN2 (protein)
chain: MEYHPDLENLDEDGYTQLHFDSQSNTRIAVVSEKGSCAASPPWRLIAVILGILCLVILVIAVVLGTMAIWRSNSGSNTLENGYFLSRNKENHSQPTQSSLEDSVTPTKAVKTTGVLSSPCPPNWIIYEKSCYLFSMSLNSWDGSKRQCWQLGSNLLKIDSSNELGFIVKQVSSQPDNSFWIGLSRPQTEVPWLWEDGSTFSSNLFQIRTTATQENPSPNCVWIHVSVIYDQLCSVPSYSICEKKFSM
**Q.** B1 was tested. Which “glycan array binding signal (z-score)” value [1] did it give?
**A.** -0.219

**Q.** And the “glycan array binding signal (z-score)” value [2]?
**A.** 0.23

**Q.** What about the “glycan array binding signal (z-score)” value [3] of the same binder?
**A.** 0.421

**Q.** And the “glycan array binding signal (z-score)” value [4]?
**A.** 0.301

**Q.** What about the “glycan array binding signal (z-score)” value [5] of the same binder?
**A.** -0.104

**Q.** What about the “glycan array binding signal (z-score)” value [6] of the same binder?
**A.** -0.16

**Q.** What about the “glycan array binding signal (z-score)” value [7] of the same binder?
**A.** -0.058

**Q.** And the “glycan array binding signal (z-score)” value [8]?
**A.** -0.999

**Q.** What about the “glycan array binding signal (z-score)” value [9] of the same binder?
**A.** -0.527

**Q.** And the “glycan array binding signal (z-score)” value [10]?
**A.** -0.842

**Q.** What about the “glycan array binding signal (z-score)” value [11] of the same binder?
**A.** -0.798

**Q.** And the “glycan array binding signal (z-score)” value [12]?
**A.** 0.509

**Q.** What about the “glycan array binding signal (z-score)” value [13] of the same binder?
**A.** -0.352

**Q.** What about the “glycan array binding signal (z-score)” value [14] of the same binder?
**A.** -0.311

**Q.** What about the “glycan array binding signal (z-score)” value [15] of the same binder?
**A.** 0.077

**Q.** And the “glycan array binding signal (z-score)” value [16]?
**A.** -0.179

**Q.** And the “glycan array binding signal (z-score)” value [17]?
**A.** 0.273

**Q.** And the “glycan array binding signal (z-score)” value [18]?
**A.** -0.447

**Q.** What about the “glycan array binding signal (z-score)” value [19] of the same binder?
**A.** -0.383

**Q.** What about the “glycan array binding signal (z-score)” value [20] of the same binder?
**A.** -0.043

**Q.** And the “glycan array binding signal (z-score)” value [21]?
**A.** -0.165

**Q.** And the “glycan array binding signal (z-score)” value [22]?
**A.** -0.703

**Q.** What about the “glycan array binding signal (z-score)” value [23] of the same binder?
**A.** -0.472

**Q.** And the “glycan array binding signal (z-score)” value [24]?
**A.** -0.353

**Q.** What about the “glycan array binding signal (z-score)” value [25] of the same binder?
**A.** -0.922

**Q.** What about the “glycan array binding signal (z-score)” value [26] of the same binder?
**A.** 0.091

**Q.** And the “glycan array binding signal (z-score)” value [27]?
**A.** -0.815

**Q.** And the “glycan array binding signal (z-score)” value [28]?
**A.** 0.042

**Q.** What about the “glycan array binding signal (z-score)” value [29] of the same binder?
**A.** -0.22

**Q.** What about the “glycan array binding signal (z-score)” value [30] of the same binder?
**A.** -0.337
